Source: the supplement of paper PMC10498489
In all, about 2,300 compounds went through this assay and about 330 (14%) showed activity.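 How the source made its calls: active = median modified Z-score above 1.96; inactive = 1.96 or below.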 Only a part is listed here, and it is no random draw.

Tested on: HepG2 Srxn1-GFP reporter cells (+30 nM CDDO-Me)
Test: Srxn1-GFP intensity median modified Z-score relative to plate median; higher = stronger NRF2 / oxidative stress reporter activation, active = hit call of the paper
Conditions: 10 µM; exposure time: 24h
Method in brief: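 The modified Z-score of GFP intensity was computed per plate, and the median over replicates is reported. HepG2 Srxn1-GFP BAC reporter cells in three replicate plates were treated for 24 h with compound at 10 μM plus an NRF2 activator at 30 nM (≤0.1% DMSO). Per-cell cytoplasmic GFP came from confocal images, excluding those with under 100 cells, and scaling used 1.4826 × median absolute deviation.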

Row | SMILES | Srxn1-GFP intensity median modified Z-score
1 | C#CCCCCCCCCCCCC(O)CC(O)COC(C)=O (stereo unspecified) [euspeclibcmpd1372] | active: 3.35
2 | CC(C)NCC(O)c1ccc(O)c(O)c1 (stereo unspecified) [euspeclibcmpd165] | inactive: -1.08
3 | CCCCCN(CCCCC)C(=O)C(CCC(=O)O)NC(=O)c1ccc(Cl)c(Cl)c1 (stereo unspecified) [euspeclibcmpd1828] | inactive: -0.305
4 | C[C@@H](COc1ccccc1)N[C@H](C)[C@H](O)c1ccc(O)cc1 [euspeclibcmpd167] | active: 4.4
5 | Cc1occc(=O)c1O [euspeclibcmpd1662] | inactive: -0.469
6 | CC(C)=CC1C(CO)C1(C)C (stereo unspecified) [euspeclibcmpd1789] | active: 2.3
7 | CC(C)(C)NCC(O)COc1cccc2c1CCCC2=O (stereo unspecified) [euspeclibcmpd764] | inactive: -0.976
8 | CCC(C(N)=O)c1ccccc1 (stereo unspecified) [euspeclibcmpd1763] | inactive: 0.173
9 | CC1(C)CC23C(=O)CCC(O)C2(C)CCC13 (stereo unspecified) [euspeclibcmpd2012] | inactive: -0.3
10 | CC1=C(/C=C/C(C)=C/C=C/C(C)=C/C=C/C=C(C)/C=C/C=C(C)/C=C/C2=C(C)C(=O)CCC2(C)C)C(C)(C)CCC1=O [euspeclibcmpd1669] | inactive: -0.405
11 | O=NN(CCCl)C(=O)NCCCl [euspeclibcmpd1168] | inactive: 0.697
12 | CCOC(=O)c1ncn2c1CN(C)C(=O)c1cc(F)ccc1-2 [euspeclibcmpd847] | inactive: -0.463
13 | O=C1CC(=O)c2ccccc2C1=O [euspeclibcmpd1562] | active: 9.54
14 | CC(C(=O)O)c1cccc(C(=O)c2ccccc2)c1 (stereo unspecified) [euspeclibcmpd422] | inactive: -0.217
15 | CC1(O)CCC(C(C)(C)O)CC1 (stereo unspecified) [euspeclibcmpd966] | inactive: -0.099
16 | O=C1CC(=O)c2c(c(O)c3ccccc3c2O)C1=O [euspeclibcmpd1727] | active: 8.98
17 | CCOC(=O)n1ccn(C)c1=S [euspeclibcmpd1210] | inactive: -0.0187
18 | C=C[C@](C)(O)CCC=C(C)C [euspeclibcmpd1465] | inactive: -0.00229
19 | C[C@@H]1CC[C@H]2[C@@H](C)C(O)O[C@@H]3O[C@]4(C)CC[C@@H]1[C@]32OO4 (stereo partly specified) [euspeclibcmpd1251] | active: 3.33
20 | c1ccc2c(c1)CN1CCCC1=N2 [euspeclibcmpd2355] | inactive: -0.455
21 | S=c1ccss1 [euspeclibcmpd2055] | active: 7.86
22 | Cc1ccccc1OCC(O)CO (stereo unspecified) [euspeclibcmpd397] | inactive: -0.0268
23 | CC(C)(C)C(=O)C(Oc1ccc(Cl)cc1)n1ccnc1 (stereo unspecified) [euspeclibcmpd1197] | inactive: -0.33
24 | CC1(C)C(C(=O)O)N2C(=O)C[C@H]2S1(=O)=O (stereo partly specified) [euspeclibcmpd473] | inactive: -0.4
25 | CCN(CC)CCOC(=O)C(Cc1cccc2ccccc12)CC1CCCO1 (stereo unspecified) [euspeclibcmpd577] | active: 3.61
26 | CC(C=C/C=C(C)/C=C/C1=C(C)CCCC1(C)C)=CC(=O)O [euspeclibcmpd2414] | active: 3.46

Row | SMILES | Srxn1-GFP intensity median modified Z-score
27 | C[C@H](N)[C@H](O)c1cccc(O)c1 [euspeclibcmpd554] | inactive: 0.506
28 | CCN(CC)C(=S)SSC(=S)N(CC)CC [euspeclibcmpd103] | inactive: 0.751
29 | O=c1cc(-c2ccccc2)oc2cc(O)cc(O)c12 [euspeclibcmpd1423] | inactive: 1.71
30 | CC(C)C(N)C(=O)OCCOCn1cnc2c(=O)[nH]c(=N)[nH]c21 (stereo unspecified) [euspeclibcmpd757] | inactive: 0.568
31 | CNC(C)[C@@H]1CC[C@@H](N)[C@@H](OC2[C@@H](N)C[C@@H](N)[C@H](OC3OC[C@](C)(O)[C@H](NC)[C@H]3O)[C@H]2O)O1 (stereo partly specified) [euspeclibcmpd820] | inactive: -0.00227
32 | Cc1ccc(-n2c(C)cc(C(=O)Cn3ncc(Cl)c(Cl)c3=O)c2C)cc1 | active: 29
33 | COc1ccc2c(=O)c(-c3ccc(O)cc3)coc2c1 [euspeclibcmpd2329] | inactive: 0.49
34 | CCN(CC)CCOc1ccc2c(c1)C(=O)c1cc(OCCN(CC)CC)ccc1-2 [euspeclibcmpd940] | active: 5.93
35 | COc1cc([C@@H]2c3cc4c(cc3C(O[C@@H]3O[C@@H]5CO[C@@H](c6cccs6)OC5[C@H](O)[C@H]3O)C3COC(=O)C32)OCO4)cc(OC)c1O (stereo partly specified) [euspeclibcmpd647] | active: 8.51
36 | N=C(N)N=C(N)NCCc1ccccc1 [euspeclibcmpd898] | active: 4.79
37 | CC(O)CNS(=O)(=O)CC1CN(C(=O)C2CC2C)CCO1 (stereo unspecified) | inactive: 1.25
38 | CC(C)CCCC(C)N (stereo unspecified) [euspeclibcmpd410] | inactive: 0.114
39 | O=c1cc(-c2ccccc2)oc2cc(O)c(O)c(O)c12 [euspeclibcmpd1724] | inactive: -0.573
40 | NC(C=O)C(O)NNCc1ccc(O)c(O)c1O (stereo unspecified) [euspeclibcmpd32] | inactive: -0.0581
41 | C/C=C/CC(C)C(O)C1C(=O)NC(CC)C(=O)N(C)CC(=O)N(C)C(CC(C)C)C(=O)NC(C(C)C)C(=O)N(C)C(CC(C)C)C(=O)NC(C)C(=O)NC(C)C(=O)N(C)C(CC(C)C)C(=O)N(C)C(CC(C)C)C(=O)N(C)C(C(C)C)C(=O)N1C (stereo unspecified) [euspeclibcmpd445] | active: 8.19
42 | CCOC(=O)c1c(C)cc(O)c(C=O)c1O [euspeclibcmpd1571] | inactive: -0.398
43 | Oc1cccc2[nH]ccc12 [euspeclibcmpd2031] | inactive: -0.358
44 | C/C1=C/CC(C)(C)/C=C/C/C(C)=C/CC1 [euspeclibcmpd1338] | inactive: 0.112
45 | NC(Cc1ccccc1)C(=O)O (stereo unspecified) [euspeclibcmpd1063] | inactive: 0.375
46 | CCCCNc1cc(C(=O)O)cc(S(N)(=O)=O)c1Oc1ccccc1 [euspeclibcmpd424] | inactive: -0.232
47 | CNC[C@H](O)[C@@H](O)[C@H](O)[C@H](O)CO [euspeclibcmpd2050] | inactive: 1.21
48 | NCCCC(O)(P(=O)(O)O)P(=O)(O)O [euspeclibcmpd2187] | inactive: -0.613
49 | NCCNCCNCCN [euspeclibcmpd837] | inactive: -0.128
50 | CCN1CCCC(OC(=O)C(c2ccccc2)c2ccccc2)C1 (stereo unspecified) [euspeclibcmpd443] | inactive: 0.699
51 | Nc1ccc(C(=O)O)cc1 [euspeclibcmpd2374] | inactive: -0.118
52 | CC(C)NC[C@H](O)COc1cccc2ccccc12 [euspeclibcmpd2365] | inactive: -0.967

Row | SMILES | Srxn1-GFP intensity median modified Z-score
53 | CN(C/C=C/c1ccccc1)Cc1cccc2ccccc12 [euspeclibcmpd791] | inactive: 0.553
54 | CC(=O)CCCCn1c(=O)c2c(ncn2C)n(C)c1=O [euspeclibcmpd591] | inactive: 0.162
55 | Cc1cc(C)cc(OCC2CNC(=O)O2)c1 (stereo unspecified) [euspeclibcmpd668] | inactive: -0.207
56 | COc1ccc(C(=O)O)c(O)c1OC [euspeclibcmpd1494] | inactive: -0.416
57 | O=C(O)[C@H](O)[C@@H](O)[C@H](O[C@@H]1O[C@H](CO)[C@H](O)[C@H](O)[C@H]1O)[C@H](O)CO [euspeclibcmpd2054] | inactive: -0.254
58 | O=C(O[C@@H]1Cc2c(O)cc(O)cc2O[C@@H]1c1ccc(O)c(O)c1)c1cc(O)c(O)c(O)c1 [euspeclibcmpd1530] | inactive: -0.77
59 | CNCCCC12CCC(c3ccccc31)c1ccccc12 [euspeclibcmpd174] | inactive: 0.89
60 | OC(c1cc(C(F)(F)F)nc2c(C(F)(F)F)cccc12)C1CCCCN1 (stereo unspecified) [euspeclibcmpd519] | inactive: 0.254
61 | C/C=C/c1ccc(OC)cc1 [euspeclibcmpd597] | inactive: -0.344
62 | O[C@H]1[C@H](O)[C@@H](O)[C@H](O)[C@@H](O)[C@H]1O [euspeclibcmpd161] | inactive: -0.185
63 | CC1=C(C(=O)O)N2C(=O)C(NC(=O)C(N)c3ccccc3)C2SC1 (stereo unspecified) [euspeclibcmpd429] | inactive: 0.0268
64 | NC1CONC1=O (stereo unspecified) [euspeclibcmpd2411] | inactive: -0.00655
65 | CC(=O)c1ccc[nH]1 [euspeclibcmpd1344] | inactive: -0.0934
66 | CC(C)(C)CC(C)(C)c1cc(Cc2cc(C(C)(C)CC(C)(C)C)cc(-n3nc4ccccc4n3)c2O)c(O)c(-n2nc3ccccc3n2)c1 [euspeclibcmpd1314] | inactive: 0.221
67 | NC(=O)c1cnccn1 [euspeclibcmpd257] | inactive: -0.418
68 | CC1(C)C(=O)C=C[C@@]2(C)C1CC(=O)[C@]1(C)C2CC[C@@]2(C)[C@H](c3ccoc3)OC(=O)C3O[C@]321 (stereo partly specified) [euspeclibcmpd1588] | active: 13
69 | CSc1nc2cc(Cl)c(Oc3cccc(Cl)c3Cl)cc2[nH]1 [euspeclibcmpd1225] | active: 4.92
70 | O=C(CCNNC(=O)c1ccncc1)NCc1ccccc1 [euspeclibcmpd1233] | inactive: -0.315
71 | CC(=O)NCCCCCC(=O)O [euspeclibcmpd1113] | inactive: -0.625
72 | CS(=O)(=O)c1ccc([C@H](O)[C@H](CF)NC(=O)C(Cl)Cl)cc1 [euspeclibcmpd827] | inactive: -0.193
73 | Cc1ncc([N+](=O)[O-])n1CC(C)O (stereo unspecified) [euspeclibcmpd1190] | inactive: -0.252
74 | COC(=O)c1c(C)cc(OC(=O)c2c(C)cc(O)c(C=O)c2O)c(C)c1O [euspeclibcmpd1556] | active: 12.5
75 | CC1=C(/C=C/C(C)=C/C=C/C(C)=C/CO)C(C)(C)CCC1 [euspeclibcmpd419] | inactive: -0.0835
76 | N#C/C(=C\c1ccc(SC(F)(F)F)cc1)c1nnc2n1CCCCC2 | active: 2.21
